Patent US20250066451A1 (SWEDISH ORPHAN BIOVITRUM AB PUBL, published 2025)

B1: Z16678-ABD (designed binder)
chain: AQHDEALEVDAKYAKEVEVAYFEIYALPNLTRKQYTAFIRKLLDDPSQSSELLSEAKKLNDSQAPKVDYVLAEAKVLANRELDKYGVSDYYKNLINNAKTVEGVKALIDEILAALPYVPG
B2: Z16681-ABD (designed binder)
chain: AQHDEALEVDAKYAKEVEYAYYEIFKLPNLTRKQYTAFIRKLLDDPSQSSELLSEAKKLNDSQAPKVDYVLAEAKVLANRELDKYGVSDYYKNLINNAKTVEGVKALIDEILAALPYVPG
B3: Z16688-ABD (designed binder)
chain: AQHDEALEVDAKYAKEVKDAQFEIFALPNLTRKQYTAFIRKLFDDPSQSSELLSEAKKLNDSQAPKVDYVLAEAKVLANRELDKYGVSDYYKNLINNAKTVEGVKALIDEILAALPYVPG
B4: Z16749-ABD (designed binder)
chain: AQHDEALEVDAKYAKEVEAAYYEIYGLPNLTRKQYTAFIRKLLDDPSQSSELLSEAKKLNDSQAPKVDYVLAEAKVLANRELDKYGVSDYYKNLINNAKTVEGVKALIDEILAALPYVPG
B5: Z16771-ABD (designed binder)
chain: AQHDEALEVDAKYAKEVEVAYMEIFQLPNLTRKQYTAFIRKLLDDPSQSSELLSEAKKLNDSQAPKVDYVLAEAKVLANRELDKYGVSDYYKNLINNAKTVEGVKALIDEILAALPYVPG
B6: Z17244-ABD (designed binder)
chain: AQHDEALEVDAKYAKEVEDAYFEIYRLPNLTRKQYTAFIRKLLDDPSQSSELLSEAKKLNDSQAPKVDYVLAEAKVLANRELDKYGVSDYYKNLINNAKTVEGVKALIDEILAALPYVPG
B7: Z17255-ABD (designed binder)
chain: AQHDEALEVDAKYAKEVEQAYYEIYALPNLTRKQYTAFIRKLLDDPSQSSELLSEAKKLNDSQAPKVDYVLAEAKVLANRELDKYGVSDYYKNLINNAKTVEGVKALIDEILAALPYVPG
B8: Z17257-ABD (designed binder)
chain: AQHDEALEVDAKYAKEVEEAYMEIYGLPNLTRKQYTAFIRKLLDDPSQSSELLSEAKKLNDSQAPKVDYVLAEAKVLANRELDKYGVSDYYKNLINNAKTVEGVKALIDEILAALPYVPG
B9: Z17269-ABD (designed binder)
chain: AQHDEALEVDAKYAKEVEEAYQEIFHLPNLTRKQYTAFIRKLLDDPSQSSELLSEAKKLNDSQAPKVDYVLAEAKVLANRELDKYGVSDYYKNLINNAKTVEGVKALIDEILAALPYVPG
B10: Z17270-ABD (designed binder)
chain: AQHDEALEVDAKYAKETEEAYFEIYRLPNLTRKQYTAFIRKLLDDPSQSSELLSEAKKLNDSQAPKVDYVLAEAKVLANRELDKYGVSDYYKNLINNAKTVEGVKALIDEILAALPYVPG
B11: Z17274-ABD (designed binder)
chain: AQHDEALEVDAKYAKEIEVAYMEIYHLPNLTRKQYTAFIRKLLDDPSQSSELLSEAKKLNDSQAPKVDYVLAEAKVLANRELDKYGVSDYYKNLINNAKTVEGVKALIDEILAALPYVPG
B12: Z17278-ABD (designed binder)
chain: AQHDEALEVDAKYAKEIERAYYEIYDLPNLTRKQYTAFIRKLLDDPSQSSELLSEAKKLNDSQAPKVDYVLAEAKVLANRELDKYGVSDYYKNLINNAKTVEGVKALIDEILAALPYVPG
B13: Z17279-ABD (designed binder)
chain: AQHDEALEVDAKYAKEVEDAYFEIYYLPNLTRKQYTAFIRKLLDDPSQSSELLSEAKKLNDSQAPKVDYVLAEAKVLANRELDKYGVSDYYKNLINNAKTVEGVKALIDEILAALPYVPG
B14: Z17280-ABD (designed binder)
chain: AQHDEALEVDAKYAKEVEQAYWEIYALPNLTRKQYTAFIRKLLDDPSQSSELLSEAKKLNDSQAPKVDYVLAEAKVLANRELDKYGVSDYYKNLINNAKTVEGVKALIDEILAALPYVPG
B15: Z17288-ABD (designed binder)
chain: AQHDEALEVDAKYAKEADAAYFEIYHLPNLTRKQYTAFIRKLLDDPSQSSELLSEAKKLNDSQAPKVDYVLAEAKVLANRELDKYGVSDYYKNLINNAKTVEGVKALIDEILAALPYVPG
B16: Z17292-ABD (designed binder)
chain: AQHDEALEVDAKYAKEVEYAYFEIYSLPNLTRKQYTAFIRKLLDDPSQSSELLSEAKKLNDSQAPKVDYVLAEAKVLANRELDKYGVSDYYKNLINNAKTVEGVKALIDEILAALPYVPG
B17: Z17296-ABD (designed binder)
chain: AQHDEALEVDAKYAKEVETAYFEIYALPNLTRKQYTAFIRKLLDDPSQSSELLSEAKKLNDSQAPKVDYVLAEAKVLANRELDKYGVSDYYKNLINNAKTVEGVKALIDEILAALPYVPG
B18: Z17297-ABD (designed binder)
chain: AQHDEALEVDAKYAKEAYIAQMEIFGLPNLTRKQYTAFIRKLLDDPSQSSELLSEAKKLNDSQAPKVDYVLAEAKVLANRELDKYGVSDYYKNLINNAKTVEGVKALIDEILAALPYVPG
B19: Z18557-ABD (designed binder)
chain: AQHDEALEVDAKYAKEIEAVQMEIFYLPNLTRKQYTAFIRKLFDDPSQSSELLSEAKKLNDSQAPKVDYVLAEAKVLANRELDKYGVSDYYKNLINNAKTVEGVKALIDEILAALPYVPG
B20: Z18838 (designed binder)
chain: AQHDEALEVDAKYAKEVEEIQMEIFHLPNLTRKQYTAFIRKLLDDPSQSSELLSEAKKLNDSQAPKVDYVLAEAKVLANRELDKYGVSDYYKNLINNAKTVEGVKALIDEILAALPYVPG
notes: Z-ABD001 fusion in periplasmic extract; also called Z-ABD
B21: Z15840 (designed binder)
chain: AQHDEALEVDAKYAKEVEVAQMEIFALPNLTRKQYTAFIRKLLDDPSQSSELLSEAKKLNDSQAPKVDYVLAEAKVLANRELDKYGVSDYYKNLINNAKTVEGVKALIDEILAALPYVPG
notes: as for B20
B22: Z15862 (designed binder)
chain: AQHDEALEVDAKYAKEVEIAQMEIFALPNLTRKQYTAFIRKLLDDPSQSSELLSEAKKLNDSQAPKVDYVLAEAKVLANRELDKYGVSDYYKNLINNAKTVEGVKALIDEILAALPYVPG
notes: as for B20
B23: Z15876 (designed binder)
chain: AQHDEALEVDAKYAKEIEAAQMEIFGLPNLTRKQYTAFIRKLFDDPSQSSELLSEAKKLNDSQAPKVDYVLAEAKVLANRELDKYGVSDYYKNLINNAKTVEGVKALIDEILAALPYVPG
notes: as for B20
B24: Z15934 (designed binder)
chain: AQHDEALEVDAKYAKEVTVAQMEIFALPNLTRKQYTAFIRKLLDDPSQSSELLSEAKKLNDSQAPKVDYVLAEAKVLANRELDKYGVSDYYKNLINNAKTVEGVKALIDEILAALPYVPG
notes: as for B20
B25: Z15945 (designed binder)
chain: AQHDEALEVDAKYAKEVEEAQMEIFSLPNLTRKQYTAFIRKLLDDPSQSSELLSEAKKLNDSQAPKVDYVLAEAKVLANRELDKYGVSDYYKNLINNAKTVEGVKALIDEILAALPYVPG
notes: as for B20
B26: Z15975 (designed binder)
chain: AQHDEALEVDAKYAKEVETAQMEIFVLPNLTRKQYTAFIRKLLDDPSQSSELLSEAKKLNDSQAPKVDYVLAEAKVLANRELDKYGVSDYYKNLINNAKTVEGVKALIDEILAALPYVPG
notes: as for B20
B27: Z16062 (designed binder)
chain: AQHDEALEVDAKYAKEIEEAQMEIFYLPNLTRKQYTAFIRKLFDDPSQSSELLSEAKKLNDSQAPKVDYVLAEAKVLANRELDKYGVSDYYKNLINNAKTVEGVKALIDEILAALPYVPG
notes: as for B20
B28: Z16183 (designed binder)
chain: AQHDEALEVDAKYAKEVEDAQMEIFYLPNLTRKQYTAFIRKLLDDPSQSSELLSEAKKLNDSQAPKVDYVLAEAKVLANRELDKYGVSDYYKNLINNAKTVEGVKALIDEILAALPYVPG
notes: as for B20
B29: Z16208 (designed binder)
chain: AQHDEALEVDAKYAKEVEKAQMEIFDLPNLTRKQYTAFIRKLFDDPSQSSELLSEAKKLNDSQAPKVDYVLAEAKVLANRELDKYGVSDYYKNLINNAKTVEGVKALIDEILAALPYVPG
notes: as for B20
B30: Z16603 (designed binder)
chain: AQHDEALEVDAKYAKEVEAAQMEIFYLPNLTRKQYTAFIRKLFDDPSQSSELLSEAKKLNDSQAPKVDYVLAEAKVLANRELDKYGVSDYYKNLINNAKTVEGVKALIDEILAALPYVPG
notes: as for B20
B31: Z16606 (designed binder)
chain: AQHDEALEVDAKYAKEIEKAQMEIFDLPNLTRKQYTAFIRKLFDDPSQSSELLSEAKKLNDSQAPKVDYVLAEAKVLANRELDKYGVSDYYKNLINNAKTVEGVKALIDEILAALPYVPG
notes: as for B20
B32: Z18754 (designed binder)
chain: AQHDEALEVDAKYAKEVEEIQMEIFRLPNLTRRQYTAFIRKLLDDPSQSSELLSEAKKLNDSQAPKVDYVLAEAKVLANRELDKYGVSDYYKNLINNAKTVEGVKALIDEILAALPYVPG
notes: as for B20

What was measured:
[1] = target: T1, Human IL-1R-I-Fc (Creative BioMart cat. no. IL1RI-771H) (human, UniProt P14778 18-332, limits assumed); experiment: ELISA, hIL-1R-I-Fc titration on Z-ABD
T1 construct: bought protein; also called hIL-1R-I-Fc; hIL-1RI-Fc
T1 sequence (looked up): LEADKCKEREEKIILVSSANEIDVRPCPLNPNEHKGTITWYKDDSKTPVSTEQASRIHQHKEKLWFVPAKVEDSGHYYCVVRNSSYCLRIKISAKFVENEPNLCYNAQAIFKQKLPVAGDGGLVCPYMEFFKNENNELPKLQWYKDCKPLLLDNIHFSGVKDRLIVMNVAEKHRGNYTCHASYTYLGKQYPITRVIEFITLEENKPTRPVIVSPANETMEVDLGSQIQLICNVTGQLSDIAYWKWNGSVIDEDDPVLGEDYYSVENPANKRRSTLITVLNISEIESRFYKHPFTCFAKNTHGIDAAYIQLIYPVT

[2] = target: T2, Human IL-1R-I-Fc (Creative BioMart cat. no. IL1RI-771H) (human, UniProt P14778 18-332, limits assumed); experiment: ELISA, captured Z-ABD, hIL-1R-I-Fc titrated
T2 construct: Bought Fc fusion; also called hIL-1R-I-Fc; hIL-1RI-Fc; not shown: Fc part of the bought fusion
T2 sequence (looked up): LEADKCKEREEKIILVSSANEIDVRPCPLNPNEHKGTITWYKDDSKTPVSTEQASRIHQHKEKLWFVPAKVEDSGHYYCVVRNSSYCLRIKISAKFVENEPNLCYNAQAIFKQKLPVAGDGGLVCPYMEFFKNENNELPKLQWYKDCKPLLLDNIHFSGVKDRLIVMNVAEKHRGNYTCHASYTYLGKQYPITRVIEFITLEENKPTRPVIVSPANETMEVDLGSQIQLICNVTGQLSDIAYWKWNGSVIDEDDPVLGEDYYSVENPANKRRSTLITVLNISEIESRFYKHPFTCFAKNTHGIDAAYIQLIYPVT

Binder | EC50 [1] | EC50 [2]
B1 | 0.24 nM | 
B2 | 0.23 nM | 
B3 | 0.27 nM | 
B4 | 0.27 nM | 
B5 | 0.24 nM | 
B6 | 0.42 nM | 
B7 | 0.25 nM | 
B8 | 0.48 nM | 
B9 | 0.27 nM | 
B10 | 0.3 nM | 
B11 | 0.21 nM | 
B12 | 0.27 nM | 
B13 | 0.28 nM | 
B14 | 0.22 nM | 
B15 | 0.42 nM | 
B16 | 0.2 nM | 

Binder | EC50 [1] | EC50 [2]
B17 | 0.32 nM | 
B18 | 0.24 nM | 
B19 | 0.19 nM | 
B20 |  | 0.24 nM
B21 |  | 0.23 nM
B22 |  | 0.25 nM
B23 |  | 0.19 nM
B24 |  | 0.17 nM
B25 |  | 0.23 nM
B26 |  | 0.19 nM
B27 |  | 0.21 nM
B28 |  | 0.23 nM
B29 |  | 0.22 nM
B30 |  | 0.22 nM
B31 |  | 0.23 nM
B32 |  | 0.35 nM
